According to PubChem BioAssay AID1345082 (National Center for Advancing Translational Sciences (NCATS), 2018):
Out of some 94,000 compounds screened, about 4,000 (4.3%) were called active. This list was built around the results that the source calls inconclusive (neither active nor inactive); the mix of calls is not that of the screen. Calls follow the shape of the dose curve; as a rule, active = well fitted inhibition curve with a large enough effect; inconclusive = small, poorly fitted or top-dose-only effect; inactive = no such curve, though single readings can be large or run the other way. Potencies of inconclusive entries are doubtful fits and often do not repeat.

Test: Cytotoxic Profiling in NIH 3T3 Cell Line of Diverse Libraries Using Quantitative High-Throughput Screening; also: nearly all actives have a fitted effect of over 55% in size
Conditions: NIH 3T3 viability, CellTiter-Glo ATP luminescence, 48-72 h; series mostly up to 96.7 µM
Method in brief: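 Mouse fibroblast NIH 3T3 cells, 400 per well, received compound via pintool and were incubated for 48 or 72 hr prior to CellTiter-Glo ATP luminescence measurement.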
Potency is read from the fitted curve at half-maximal effect; tags tell the direction and shape of the fitted curve.

Row | SMILES | Potency
1 | Cn1nc(CN2CCOCC2)c2c1CCN(S(=O)(=O)c1cccc(F)c1)C2 | inactive
2 | COCCn1ncc(N2CCCC(CC(=O)NCCN3CCCC3)C2)cc1=O (centres undefined) | inactive
3 | COc1cccc(CC(=O)NC2CCN(C(=O)N3CC4CC(C3)[C@H]3CCCC(=O)N3C4)CC2)c1 (some centres undefined) | inconclusive: 70.8 µM [inhibitor, partial curve, poor fit]
4 | O=C(NCc1cccnc1)[C@@H]1C[C@@H](O)CN1C1CCN(C(=O)c2cccs2)CC1 | inactive
5 | COc1ccc(-c2nnc3ccc(NCCc4ccccc4)nn23)nc1 | inconclusive: 63.1 µM [inhibitor, partial curve, poor fit]
6 | COC[C@H]1NC(=O)CC[C@H]1C(=O)NCCC1=CCCCC1 | inactive
7 | Cc1ccc(CN2CC(Oc3ccc(-c4noc(-c5cccnc5)n4)cc3)C2)o1 | inconclusive: 22.4 µM [inhibitor, partial curve]
8 | Cc1noc(C)c1C(=O)N1CCC2(CC1)CN(C(=O)Cc1c[nH]c3ccccc13)CCO2 | inactive
9 | CN1CCN(c2ccc3nnc(-c4cc(C(=O)Nc5cccc(Cl)c5)ccn4)n3n2)CC1 | inconclusive: 50.1 µM [inhibitor, partial curve, poor fit]
10 | O=C(c1nnc(COc2cccc(N3CCOCC3)c2)n1Cc1ccccc1)N1CCC[C@@H]1c1ccc(Br)cc1 | inconclusive: 7.94 µM [inhibitor, full curve, poor fit]
11 | COc1nc2nc(CCc3ccccc3)n(C)c2cc1Nc1ccncn1 | inconclusive: 112 µM [inhibitor, single point]
12 | O=C(Nc1ccc(OC(F)(F)F)cc1)c1cc(-c2ccc[nH]2)n[nH]1 | active: 25.1 µM
13 | CC(C)CC(=O)N1CCC(Oc2ccccc2-c2nc(C3CCOCC3)no2)C1 (centres undefined) | inconclusive: 70.8 µM [inhibitor, single point]
14 | Clc1ccc(Cn2ccnc2-c2cc3n(n2)CCCNC3)cc1Cl | active: 25.1 µM
15 | O=C(O)CCn1ncc2cc(OC3CCN(C(=O)Oc4ccccc4Cl)CC3)ccc21 | active: 8.91 µM
16 | Cn1ncc2c(C(=O)NCc3ccc(F)cc3F)cc(-c3ccccc3C(F)(F)F)nc21 | inconclusive: 12.6 µM [inhibitor, full curve, poor fit]
17 | Cc1ccccc1C(=O)N1CCC2(CC1)NC(=O)N(c1cccc(F)c1)N2 | inconclusive: 39.8 µM [inhibitor, partial curve]
18 | CN1CCC(C(=O)N2Cc3ccccc3CC3(CCCN(C)C3)C2)CC1 (centres undefined) | inconclusive: 89.1 µM [inhibitor, single point]
19 | COc1ccc(-c2ccccc2C(=O)N2CCC(NC(=O)c3cccc(Cl)c3)CC2)nn1 | inactive
20 | COc1ccccc1-n1c(=O)c(C(=O)N2CCN(C(=O)c3ccccc3Cl)CC2)nc2cccnc21 | inactive
21 | O=C(N1CCCC(n2cc(-c3nc(C4CC4)no3)nn2)C1)C1(c2ccccc2)CC1 (centres undefined) | inconclusive: 35.5 µM [inhibitor, partial curve, poor fit]
22 | O=C(N1CC(Oc2ccccc2-c2nc(C3CC3)no2)C1)C1(c2ccccc2)CC1 | inconclusive: 70.8 µM [inhibitor, single point]

Row | SMILES | Potency
23 | CN1C(=O)CC[C@]2(C(=O)NCc3ccco3)CCCC[C@@H]12 | inconclusive: 79.4 µM [inhibitor, single point]
24 | O=C(C1CCCC1)N1CC2(CCN(Cc3ccccn3)C2)Cc2ccccc21 (centres undefined) | inconclusive: 50.1 µM [inhibitor, partial curve, poor fit]
25 | CC1(C)[C@H](Cc2cc(CN3CCOCC3)on2)C[C@@H]1NC(=O)Nc1ccc(F)cc1 | inconclusive: 100 µM [inhibitor, partial curve, poor fit]
26 | COc1ccc2ccc(OCc3nc(C(=O)N(C)CC4CCCO4)co3)cc2c1 (centres undefined) | inconclusive: 44.7 µM [inhibitor, full curve, poor fit]
27 | COc1ccccc1NC(=O)NC[C@H]1O[C@H](Cc2cc(COc3ccccc3)on2)CC[C@@H]1O | inconclusive: 56.2 µM [inhibitor, partial curve, poor fit]
28 | Fc1cccc(-c2cnc(Nc3cccnc3)c3c2CCO3)c1 | inconclusive: 56.2 µM [inhibitor, partial curve, poor fit]
29 | CC(C)(C)CC(=O)N1CCN2C(=O)c3cc(-c4ccc(Cl)cc4)ccc3NC(=O)[C@H]2C1 | inconclusive: 56.2 µM [inhibitor, partial curve, poor fit]
30 | CCC(=O)N1Cc2ccccc2CC2(CCCN(Cc3cccnc3)C2)C1 (centres undefined) | inactive
31 | CCOCCCNC(=O)c1cc2c(=O)[nH]c(-c3ccccc3)cn2n1 | inconclusive: 50.1 µM [inhibitor, single point]
32 | CCCC(=O)N1Cc2ccccc2CC2(CCCN(Cc3ccncc3)C2)C1 (centres undefined) | inactive
33 | Cn1nc(C(=O)N2CCCCCCNC(=O)[C@@H]3CCCC[C@@H]32)c2ccccc21 | inconclusive: 70.8 µM [inhibitor, single point]
34 | CCCC(=O)NC1CCN(c2cnn(CC)c(=O)c2)CC1 | inactive
35 | CC(=O)N1CCN(C(=O)c2cccs2)[C@H](C(=O)N[C@@H](CC2CCCCC2)C(N)=O)C1 | inactive
36 | COC(=O)[C@@H]1Cc2c([nH]c3ccccc23)[C@H]2C[C@@H](NC(C)C)C[C@@H](c3ccccc3)N21 | active: 39.8 µM
37 | CCOC(=O)C1CCN(C(=O)c2nc3sccn3c2-c2cccc(C(F)(F)F)c2)CC1 | inactive
38 | COC(=O)[C@@H]1Cc2ncn(Cc3ccc(Cl)cc3)c2CN1Cc1cccs1 | active: 89.1 µM
39 | CCNC(=O)c1ccc2c(c1)C1(CCN(CC3CC3)C1)CN2Cc1ccccc1 (centres undefined) | inconclusive: 100 µM [inhibitor, single point]
40 | COc1cccc(CN2CCC(n3cc[nH]c3=O)CC2)c1 | inconclusive: 89.1 µM [inhibitor, partial curve, poor fit]
41 | COc1ccccc1-c1cccc(C(=O)N2CCN([S+](=O)([O-])c3cccc(C(F)(F)F)c3)CC2)c1 | inconclusive: 39.8 µM [inhibitor, partial curve, poor fit]
42 | COc1ccc(OC)c(CNC(=O)c2ccc(-c3ccc(N4CCSCC4)nc3)cc2)c1 | inconclusive: 22.4 µM [inhibitor, full curve]
43 | CC(C)N1CC(C(=O)NCc2ccc(Cl)cc2)NC1=O (centres undefined) | inactive
44 | O=C(NCc1ccccc1)C1CC(=O)N(C2CN(Cc3ccc(C(F)(F)F)cc3)C2)C1 (centres undefined) | inactive

Row | SMILES | Potency
45 | CNC(=O)CN(Cc1cccs1)[C@@H]1C[C@@H]2CO[C@H](C(C)C)C[C@@H]2C1 | inconclusive: 12.6 µM [inhibitor, full curve, poor fit]
46 | CO[C@H]1C(=O)N(C2CCN(S(=O)(=O)c3cccnc3)CC2)[C@H]1c1ccncc1 | inactive
47 | Cc1noc(C)c1-c1cc2c(c(-c3ccc(F)c(Cl)c3)c1)C(=O)N(C)C2 | inconclusive: 50.1 µM [inhibitor, partial curve, poor fit]
48 | Cc1ncoc1C(=O)N1CCCCCCn2c(nnc2-c2ccc(F)cc2)CC1 | inactive
49 | Cc1cc2c(-c3ccc(S(C)(=O)=O)cc3)nc(-c3c(C)noc3C)cc2[nH]1 | inconclusive: 15.8 µM [inhibitor, full curve, poor fit]
50 | Cc1cccc(C(=O)NC(C(=O)N2CCOCC2)C2CCN(C(=O)c3ccc4c(c3)OCO4)CC2)c1 (centres undefined) | inconclusive: 44.7 µM [inhibitor, partial curve, poor fit]
51 | CCOCCCNc1ncnc2c1CN(C1CCNCC1)C(=O)CN2C | inactive
52 | COc1ccc(NC(=O)Cn2c(=O)n(-c3cccc(C)c3)c(=O)c3c2cc(C)n3C)c(OC)c1 | inactive
53 | CNC(=O)CN1CN(c2ccccc2)C2(CCN(C(=O)NC34CC5CC(CC(C5)C3)C4)CC2)C1=O | inconclusive: 70.8 µM [inhibitor, single point]
54 | COc1ccccc1Nc1ccnc(N2CCN([S+](=O)([O-])c3ccc(C)cc3)CC2)n1 | inconclusive: 28.2 µM [inhibitor, full curve]
55 | Cc1nc2cccnc2n1CC1CCCN(S(=O)(=O)c2cc(F)cc(F)c2)C1 (centres undefined) | inactive
56 | O=C(C[C@@H]1CCNC[C@@H]1Cc1cc(-c2ccc(F)cc2)on1)NCc1ccc(F)cc1 | active: 39.8 µM
57 | Cc1noc(C)c1[S+](=O)([O-])N1CCC(C(=O)N2CCC(N3CCOCC3=O)CC2)CC1 | inactive
58 | Cn1ccc2c(C(=O)NCc3cnccn3)nc(-c3cccc(N4CCOCC4)c3)cc21 | inconclusive: 89.1 µM [inhibitor, partial curve, poor fit]
59 | O=C(N[C@H]1CO[C@H]2[C@@H]1OC[C@@H]2Nc1nccc(-c2ccc(-c3ccccc3)cc2)n1)C1CC1 | inactive
60 | O=C(N[C@H]1CCN2C(=O)c3cc(-c4ccc(Cl)cc4)ccc3NC(=O)[C@H]12)c1cnccn1 | inconclusive: 79.4 µM [inhibitor, partial curve, poor fit]
61 | NCc1cccc(-c2cccc(C(F)(F)F)c2)c1 | active: 79.4 µM
62 | O=C1c2c(nc(CNCc3cccc(Cl)c3)n2Cc2ccccc2)NCCN1CCOc1ccccc1 | inconclusive: 50.1 µM [inhibitor, partial curve, poor fit]
63 | Cc1noc(C)c1CN1CCc2nc(C(=O)Nc3ccccc3)oc2CC1 | inconclusive: 79.4 µM [inhibitor, partial curve]
64 | CC1=C[C@@H](CNC2CCN(C)CC2)[C@H](C(C)C)C[C@H]1Cc1nc2ccc(F)cc2[nH]1 | inconclusive: 63.1 µM [inhibitor, partial curve, poor fit]
